The values that follow come from the supplement of paper PMC4967469.

Lines with a small IC50 respond at low doses; a fit beyond the top or the lowest dose is shown as a bound at that dose. AUC sums up the same curve from the lowest dose to the 256-fold higher top dose; values near 1 show little effect. Where the top dose is marked as inferred, it was derived from the fitted curves, not read from the paper.

Compound in one experiment: O=C1NC(=O)c2c1c(-c1ccccc1Cl)cc1[nH]c3ccc(O)cc3c21 [Wee1 inhibitor 681640]
Put plainly: Viability of human cancer cell lines after 72 h of drug (GDSC screen). The following applies: top dose 2 µM; top dose inferred. As for the experimental part: (§1)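 Human cancer cell lines in 384-well plates, medium with 10% serum, drug for 72 h over a 256-fold dose range (nine 2-fold or five 4-fold steps up to the top dose). Adherent lines were fixed and stained with the nucleic acid dye Syto60, suspension lines read with resazurin; signal relative to control wells, capped at 0 and 100%. One two-parameter sigmoid per drug and line, fitted in a mixed model over all curves with the slope shared within a line.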
For the cell line TUR (B-cell lymphoma, suspension), the AUC came out at 0.905 and the half-inhibitory concentration (IC50) (as a rule, the concentration at which inhibition is half-maximal) is above 2 µM.
The matching figures for VA-ES-BJ (soft tissue, adherent): 0.876 and above 2 µM.
The corresponding values for VCaP (prostate, adherent) are 0.986 and above 2 µM.
The corresponding values for WIL2-NS (lymphoid neoplasm, suspension) are 0.992 and above 2 µM.
As to WSU-DLCL2 (B-cell lymphoma, suspension), the AUC was found to be 0.984 and the concentration for half-maximal inhibition (IC50) is above 2 µM.
With no-11 (glioma, adherent), the AUC was found to be 0.983 and the IC50 is above 2 µM.

Compound in another experiment: Cc1cccc(-c2[nH]c(C(C)(C)C)nc2-c2ccc3nccnc3c2)n1 [SB-525334]
The experiment is described as above. The following applies: top dose 20 µM; top dose inferred. As for the experimental part: as §1
Consider TUR (B-cell lymphoma, suspension), for which the AUC is 0.978 and the half-inhibitory concentration (IC50) is above 20 µM.
The corresponding values for VA-ES-BJ (soft tissue, adherent) are 0.971 and above 20 µM.
The corresponding values for VCaP (prostate, adherent) are 0.56 and 1.83 µM.
The matching figures for WIL2-NS (lymphoid neoplasm, suspension): 0.977 and above 20 µM.
As for WSU-DLCL2 (B-cell lymphoma, suspension), the AUC turned out to be 0.991 and the half-inhibitory concentration (IC50) is above 20 µM.
The corresponding values for no-11 (glioma, adherent) are 0.932 and above 20 µM.

Compound in another experiment: COc1cc(N2CCN(C)CC2)ccc1Nc1ncc2c(n1)N(C)c1ccccc1C(=O)N2C [XMD8-85]
The experiment is described as above. The following applies: top dose 8 µM; top dose inferred. Here is the method:
as §1
Consider TUR (B-cell lymphoma, suspension), for which the AUC stood at 0.919 and the IC50 was above 8 µM.
Turning to VA-ES-BJ (soft tissue, adherent), the AUC came to 0.957 and the 50% inhibitory concentration (IC50) is above 8 µM.
With VCaP (prostate, adherent), the AUC turned out to be 0.91 and the 50% inhibitory concentration (IC50) is above 8 µM.
The corresponding values for WIL2-NS (lymphoid neoplasm, suspension) are 0.886 and 6.01 µM.
The matching figures for WSU-DLCL2 (B-cell lymphoma, suspension): 0.989 and above 8 µM.
The corresponding values for no-11 (glioma, adherent) are 0.918 and above 8 µM.

Compound in a further experiment: CC(C)=CC[C@@H](O)C1=CC(=O)c2c(O)ccc(O)c2C1=O [Shikonin]
Described as above. The following applies: top dose 16 µM; top dose inferred. As for the experimental part:
as §1
For TUR (B-cell lymphoma, suspension), the AUC turned out to be 0.425 and the IC50 was 0.633 µM.
The corresponding values for VA-ES-BJ (soft tissue, adherent) are 0.361 and 0.403 µM.
The corresponding values for VCaP (prostate, adherent) are 0.437 and 0.669 µM.
The corresponding values for WIL2-NS (lymphoid neoplasm, suspension) are 0.413 and 0.606 µM.
In the case of WSU-DLCL2 (B-cell lymphoma, suspension), the AUC was determined as 0.694 and the 50% inhibitory concentration (IC50) stood at 3.14 µM.
The matching figures for no-11 (glioma, adherent): 0.471 and 0.814 µM.

Compound in a further experiment: CCNc1cc(NC2CCC(O)CC2)nc(Nc2ccc3c(ccn3Cc3ccccc3)c2)n1 [CGP-082996 (CINK4)]
Described as above. The following applies: top dose 5.12 µM; top dose inferred. Here is the method:
as §1
In the case of TUR (B-cell lymphoma, suspension), the AUC stood at 0.986 and the IC50 was above 5.12 µM.
The matching figures for VA-ES-BJ (soft tissue, adherent): 0.976 and above 5.12 µM.
In the case of VCaP (prostate, adherent), the AUC came to 0.956 and the concentration for half-maximal inhibition (IC50) was above 5.12 µM.
The corresponding values for WIL2-NS (lymphoid neoplasm, suspension) are 0.983 and above 5.12 µM.
For the cell line WSU-DLCL2 (B-cell lymphoma, suspension), the AUC is 0.993 and the IC50 is above 5.12 µM.
As to no-11 (glioma, adherent), the AUC stood at 0.948 and the IC50 is above 5.12 µM.

Compound in a further experiment: COc1cc(-c2nn([C@H]3CC[C@H](N4CCN(C(C)=O)CC4)CC3)c3ncnc(N)c23)ccc1NC(=O)c1cc2ccccc2n1C [A-770041]
Described as above. Conditions: top dose 5.12 µM; top dose inferred. Here is the method: as §1
As to TUR (B-cell lymphoma, suspension), the AUC was determined as 0.988 and the IC50 is above 5.12 µM.
For VA-ES-BJ (soft tissue, adherent), the AUC came out at 0.921 and the 50% inhibitory concentration (IC50) was above 5.12 µM.
Take VCaP (prostate, adherent): the AUC came to 0.98 and the IC50 is above 5.12 µM.
Take WIL2-NS (lymphoid neoplasm, suspension): the AUC worked out at 0.709 and the half-maximal inhibitory concentration (IC50) was determined as 1.09 µM.
The corresponding values for WSU-DLCL2 (B-cell lymphoma, suspension) are 0.993 and above 5.12 µM.
The matching figures for no-11 (glioma, adherent): 0.924 and above 5.12 µM.

Compound in a further experiment: CNC(=O)c1ccc(Nc2cc(Nc3ccccc3S(=O)(=O)C(C)C)c3cc[nH]c3n2)nc1 [HG-5-113-01]
The experiment is described as above. Conditions: top dose 10 µM; top dose inferred. Here is the method:
as §1
For TUR (B-cell lymphoma, suspension), the AUC was found to be 0.547 and the IC50 came out at 0.831 µM.
The matching figures for VA-ES-BJ (soft tissue, adherent): 0.855 and 8.72 µM.
On to VCaP (prostate, adherent), for which the AUC came to 0.816 and the half-maximal inhibitory concentration (IC50) is 5.83 µM.
